# Laboratory results published in PubChem BioAssay AID651820 (National Center for Advancing Translational Sciences (NCATS), 2012).
# About 12,000 (3.5%) of roughly 340,000 compounds were called active. The inconclusive results got no clear call from the source; some entries with a clear call stand among them for comparison. Calls come from the whole dose curve; as a rule, active = well fitted inhibition curve with a large enough effect; inconclusive = small, poorly fitted or top-dose-only effect, or another doubt; inactive = no such curve, though single readings can be large or run the other way. Potencies of inconclusive entries are left out as doubtful fits.
# Assay: qHTS Assay for Inhibitors of Hepatitis C Virus (HCV)
# Settings: Huh7.5.1 HCVcc-Cre (HCVcc is cell-culture hepatitis C virus) infection, luciferase reporter, 44 h; activity change, negative = inhibition: at 41.8 µM (top of the series) unless noted
# Method in brief: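 Infectious HCVcc-Cre (~0.5 moi) was added to cells just after compound, with cells seeded 4 h earlier at 1,000 per well. Luciferase activity after 44 h culture reported infection; substrate was incubated 15 min at room temperature before reading.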
# % is set by controls: 0 for no effect and ±100 for the full control effect; potency is the fitted concentration of half-maximal effect; tags give direction and shape of the fitted curve.
SMILES,Potency,"activity change, negative = inhibition"
CCN(CC(=O)NCc1ccc(F)cc1)C(=O)c1ccc(C(=O)c2ccccc2)cc1,"inconclusive [inhibitor, partial curve]",–
COc1cc2c(c3oc(=O)cc(CC(=O)O)c13)CCC(C)(C)O2,active: 10 µM,–
COc1ccccc1/C=C/C=c1\sc2nc(=O)c(Cc3ccccc3)nn2c1=O,"inconclusive [inhibitor, single point]",–
Cc1cc(C)c(C#N)c(SCC(=O)c2cccs2)n1,–,inactive: -13.3%
COC(=O)c1ccccc1NC(=S)N(Cc1ccc2c(c1)OCO2)Cc1cc2ccc(C)cc2[nH]c1=O,"inconclusive [inhibitor, partial curve]",–
CCc1nn(CC(=O)NCCCN(C)C2CCCCC2)c(=O)c2cc3occc3n12,"inconclusive [inhibitor, partial curve]",–
Cc1ccc(NC(=O)C2=C(O)CCn3c2nc2ccccc23)cc1,"inconclusive [inhibitor, single point]",–
Cc1ccc(C)c(NC(=O)COC(=O)c2ccc3c(c2)OCO3)c1,–,inactive: 10.4%
CCN(CC)C1=N/C(=C\c2ccc(OC)cc2)C(=O)N1c1ccccc1,"inconclusive [inhibitor, single point]",–
Fc1ccc(CNc2ccc(N3CCN(Cc4ccccc4)CC3)cc2)cc1,"inconclusive [inhibitor, single point]",–
O=C(CCc1nnc(Cc2c[nH]c3ccccc23)o1)NCC1CC12CCCCC2 (stereo not given),–,inactive: 16%
Cc1ccc2c(c1)N(S(=O)(=O)c1cc(-c3cc(C)no3)ccc1C)CCO2,"inconclusive [inhibitor, single point]",–
CCN1C(=O)N/C(=C/c2cc(C)n(Cc3ccccc3)c2C)C1=O,active: 10 µM,–
COc1ccc(CCN=C2SCC(=O)N2Cc2ccccc2)cc1OC,"inconclusive [inhibitor, single point]",–
CN1CCN(c2ccc(S(=O)(=O)N3CCOCC3)cc2NC(=O)CSCc2ccccc2)CC1,"inconclusive [inhibitor, full curve, poor fit]",–
CC(=O)Nc1nc(C)c(-c2csc(Nc3cccc([N+](=O)[O-])c3)n2)s1,"inconclusive [inhibitor, full curve]",–
N#Cc1ccsc1NC(=O)CCN1CCN(C(c2ccccc2)c2ccccc2)CC1,"inconclusive [inhibitor, full curve, poor fit]",–
CCOC(=O)Cc1csc(N/N=C/c2cccc([N+](=O)[O-])c2)n1,"inconclusive [inhibitor, partial curve]",–
CCCCCCCCOC(=O)C(NC(=O)CCC(=O)Nc1ccc(S(N)(=O)=O)cc1)C(O)c1ccccc1 (stereo not given),"inconclusive [inhibitor, partial curve]",–
COc1ccc(C(=O)NCCc2ccccn2)cc1S(=O)(=O)Nc1ccc(Br)cc1,"inconclusive [inhibitor, full curve, poor fit]",–
CC1=CC(=O)C2=C(C)CC(O)C3C(C)C(=O)OC3C12 (stereo not given),–,inactive: 18.9%
O=[N+]([O-])c1ccc(Cl)c(S(=O)(=O)Nc2ccc(S(=O)(=O)N3CCOCC3)cc2)c1,–,inactive: -6.25%
O=C(COC(=O)/C=C/c1cccc(Cl)c1)NC(=O)NCc1ccccc1,–,inactive: -6.09%

SMILES,Potency,"activity change, negative = inhibition"
CCOc1ccc(Cl)cc1CSc1n[nH]c(C)n1,"inconclusive [inhibitor, single point]",–
O=C(c1cccc(S(=O)(=O)N2CCc3ccccc32)c1)N1CCCC(C(F)(F)F)C1 (stereo not given),active: 11.2 µM,–
CCOc1c2ccc(C(=O)NCc3cc(C(F)(F)F)cc(C(F)(F)F)c3)cc2nn1CCOC,"inconclusive [inhibitor, partial curve]",–
COc1ccc(NC(=O)CCC(=O)Nc2cc(OC)c(NC(=O)c3ccco3)cc2OC)c(OC)c1,"inconclusive [inhibitor, full curve, poor fit]",–
CC(NC(=O)C(=O)N1CCCCC1)C(c1cccs1)N1CCN(c2ccccc2)CC1 (stereo not given),–,inactive: 3.5%
CCOc1ccc2[nH]c(=O)c(CN(CCN3CCCC3)C(=S)Nc3ccccc3OCC)cc2c1,"inconclusive [inhibitor, single point]",–
O=[N+]([O-])c1ccc(S(=O)(=O)c2ccccc2)nc1,"inconclusive [inhibitor, single point]",–
Cc1ccc(Cn2c(=N)c(C(=O)NCc3ccco3)cc3c(=O)n4ccccc4nc32)cc1,active: 11.2 µM,–
COC(=O)c1sccc1NC(=O)c1ccccc1[N+](=O)[O-],–,inactive: -18%
CSc1nc(N2CCOCC2)cc(N2CCOCC2)n1,"inconclusive [inhibitor, single point]",–
CCn1nc(C)c(CN2CCCCC2C(=O)Nc2ccc(Oc3cccnc3)cc2)c1C (stereo not given),active: 11.2 µM,–
Cc1c(Cc2ccccc2)sc(NC(=O)C(C)(C)C)c1C(N)=O,"inconclusive [inhibitor, single point]",–
COc1ccc(NC(=O)c2ccc(-n3cnnn3)cc2)c([N+](=O)[O-])c1,–,inactive: 5.69%
CCCC/C(O)=C1\C(=O)CC(C)(C)CC1=Nc1ccc(N)cc1,–,inactive: 15.2%
CC(Sc1ncnc2ccccc12)C(=O)Nc1ccc2c(c1)OCCO2 (stereo not given),active: 12.6 µM,–
COc1ccc(NC(=O)c2ccc(-n3cncn3)c([N+](=O)[O-])c2)cc1OC,"inconclusive [inhibitor, single point]",–
CN(C(=O)COC(=O)c1c2c(nc3ccccc13)CCCC2)c1c(N)n(Cc2ccccc2)c(=O)[nH]c1=O,"inconclusive [inhibitor, single point]",–
Cn1ncc(Cl)c1C(=O)N1CCN(C(=O)c2ccco2)CC1,–,inactive: 0.572%
O=C(COC(=O)c1cccc(C(=O)OCC(=O)NC2CC2)n1)NC1CC1,–,inactive: 28.6%
Cc1ccc(C(C)C)cc1OCC(=O)Nc1nnc(C2CC2)s1,–,inactive: -22.6%
CCOc1ccc(NC(=S)NCc2ccc3[nH]c(C)cc3c2)cc1,active: 11.2 µM,–
O=C(CSc1nnnn1Cc1ccccc1)c1ccccc1F,"inconclusive [inhibitor, partial curve]",–
